Reference: the antibiotic and cytotoxicity screens of Wong et al. (2023)
This is one part of the list.

Tests used:
[1] = system: HSkMC (human skeletal muscle cells); assay: cytotoxicity call (relative viability < 0.9); conditions: 10 µM
[2] = system: HepG2; assay: cytotoxicity call (relative viability < 0.9); conditions: 10 µM
[3] = system: S. aureus RN4220; assay: growth inhibition call (relative growth <= 0.2); conditions: 50 µM

SMILES | cytotoxicity call [1] | cytotoxicity call [2] | growth inhibition call [3]
C[C@H]1CN([C@@H](C)CO)C(=O)c2cc(NC(=O)C3CC3)ccc2O[C@H]1CN(C)Cc1ccc(C(=O)O)cc1 | inactive | inactive | inactive
CCN(CC)C(=O)N1CCN(CCC#N)CC1 | inactive | inactive | inactive
Cc1noc(C)c1S(=O)(=O)N(C)C[C@H]1OCCCC[C@H](C)Oc2ccc(NC(=O)Nc3cccc4ccccc34)cc2C(=O)N([C@H](C)CO)C[C@H]1C | inactive | inactive | inactive
COc1ccc(NC(=O)Nc2ccc3c(c2)C(=O)N([C@H](C)CO)C[C@H](C)[C@H](CN(C)S(=O)(=O)c2ccc(OC)cc2)OCCCC[C@H](C)O3)cc1 | inactive | inactive | inactive
C[C@@H]1CN([C@@H](C)CO)S(=O)(=O)c2ccc(C#CCN(C)C)cc2O[C@@H]1CN(C)Cc1ccc2c(c1)OCO2 | inactive | inactive | inactive
O=C(CCNc1n[nH]c(=O)[nH]c1=O)N1CCOCC1 | inactive | active | inactive
Cc1ccc(S(=O)(=O)N(C)C[C@H]2OCCCC[C@@H](C)Oc3ccc(NC(=O)c4ccccc4)cc3C(=O)N([C@@H](C)CO)C[C@@H]2C)cc1 | inactive | inactive | inactive
C[C@H]1CN([C@@H](C)CO)C(=O)c2cc(NS(=O)(=O)c3ccc(F)cc3)ccc2O[C@@H]1CN(C)Cc1ccncc1 | inactive | inactive | inactive
CCCN(C)C[C@@H]1Oc2cc(C#Cc3cccc(OC)c3)ccc2S(=O)(=O)N([C@H](C)CO)C[C@@H]1C | inactive | inactive | inactive
C[C@H](CO)N1C[C@H](C)[C@H](CN(C)Cc2ccc(C(=O)O)cc2)OCCCC[C@H](C)Oc2ccc(NS(=O)(=O)c3ccccc3)cc2C1=O | inactive | inactive | inactive
